Results reported in patent US20240050583A1 (HARBOUR BIOMED SHANGHAI, published 2024).

Assays:
[1] = biological target: T1, human CD47 (human, UniProt Q08722); test: flow cytometry (FACS) on CHOK1-hCD47 cells
T1 construct: whole, on cells; also called hCD47; leukocyte surface antigen CD47
Procedure: (§1) The binding ability of the antigen-binding protein to CHOK1-hCD47 cells (GenScript, M00581) highly expressing human CD47 was determined by flow cytometry FACS. Specifically, the cells were digested and resuspended in a DMEM complete medium, and the cell density was adjusted to 1×10⁶ cells/mL. The cells were seeded in a 96-well V-bottom plate (Corning, #3894) at 100 µL/well, followed by the addition of test binding proteins diluted in a 3-fold gradient at a concentration that was 2 times the final concentration, each at 100 μL/well. The cells were incubated at 4° C. for 1 h away from light. Thereafter, the cells in each well were rinsed twice with 100 μL of pre-cooled PBS, and centrifuged at 500 g at 4° C. for 5 min, and then the supernatant was discarded. Thereafter, a fluorescent secondary antibody (Alexa Fluor 488-conjugated AffiniPure Goat Anti-Human IgG, Fcγ Fragment Specific, Jackson ImmunoResearch Inc., #109-545-098, diluted in a 1:500 ratio) was added at 100 μL/well, and the plate was incubated at 4° C. for 30 min away from light. The cells in each well were then rinsed twice with 100 μL of pre-cooled PBS and centrifuged at 500 g at 4° C. for 5 min, and then the supernatant was discarded. […] Fluorescence signal values were read using a BD FACS CANTOII flow cytometer, and the data were processed and analyzed using FlowJo v10 (FlowJo, LLC) software.

[2] = biological target: T2, human ROR1 (human, UniProt Q01973 30-937); test: flow cytometry (FACS) on PanC-1 cells highly expressing human ROR1
T2 construct: whole, on cells; also called NTRKR1
Procedure: as §1, with “tumor” for “CHOK1-hCD47”, “PanC-1 (ATCC, CRL-1469)” for “(GenScript, M00581)”, “ROR1” for “CD47”, “μL/well,” for “µL/well,”

Chain of human ROR1 (Q01973 30-937): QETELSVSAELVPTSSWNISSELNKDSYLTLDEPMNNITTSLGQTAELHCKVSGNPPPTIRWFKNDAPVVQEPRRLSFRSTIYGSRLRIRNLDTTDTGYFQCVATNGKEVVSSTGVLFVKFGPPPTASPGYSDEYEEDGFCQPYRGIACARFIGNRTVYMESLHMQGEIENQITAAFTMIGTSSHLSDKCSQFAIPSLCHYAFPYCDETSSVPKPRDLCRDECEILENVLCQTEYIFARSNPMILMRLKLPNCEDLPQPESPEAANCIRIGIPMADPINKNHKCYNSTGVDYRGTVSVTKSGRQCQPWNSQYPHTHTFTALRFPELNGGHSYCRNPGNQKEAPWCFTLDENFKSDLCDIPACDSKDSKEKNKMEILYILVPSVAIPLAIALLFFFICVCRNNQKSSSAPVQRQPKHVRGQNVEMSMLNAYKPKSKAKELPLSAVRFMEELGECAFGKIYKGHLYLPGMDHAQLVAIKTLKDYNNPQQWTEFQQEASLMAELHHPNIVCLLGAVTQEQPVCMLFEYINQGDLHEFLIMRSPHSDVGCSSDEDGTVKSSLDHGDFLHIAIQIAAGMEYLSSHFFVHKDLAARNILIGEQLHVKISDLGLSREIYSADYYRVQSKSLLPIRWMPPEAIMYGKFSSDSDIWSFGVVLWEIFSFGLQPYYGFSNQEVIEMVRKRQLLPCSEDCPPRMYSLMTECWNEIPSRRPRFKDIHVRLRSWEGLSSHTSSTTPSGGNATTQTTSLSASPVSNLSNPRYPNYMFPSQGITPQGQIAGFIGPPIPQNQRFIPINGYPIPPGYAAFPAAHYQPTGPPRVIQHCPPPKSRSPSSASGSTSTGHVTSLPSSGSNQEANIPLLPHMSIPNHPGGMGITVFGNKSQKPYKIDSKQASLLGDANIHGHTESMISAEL
T1 sequence (Q08722 19-323): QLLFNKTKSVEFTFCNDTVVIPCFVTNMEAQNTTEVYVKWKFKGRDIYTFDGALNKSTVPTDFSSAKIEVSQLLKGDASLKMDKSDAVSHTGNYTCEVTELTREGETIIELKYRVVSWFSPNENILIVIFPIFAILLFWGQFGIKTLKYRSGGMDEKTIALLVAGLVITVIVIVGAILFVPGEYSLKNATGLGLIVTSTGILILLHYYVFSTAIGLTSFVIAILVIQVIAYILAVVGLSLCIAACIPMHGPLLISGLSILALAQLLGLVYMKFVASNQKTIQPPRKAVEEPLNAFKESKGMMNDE

binding result [1]	binding result [2]	Binder
binds	–	SIRPa-Fc fusion protein PR006345 (Fc fusion, also called ALX148 (clone No.)) EEELQIIQPDKSVLVAAGETATLRCTITSLFPVGPIQWFRGAGPGRVLIYNQRQGPFPRVTTVSDTTKRNNMDFSIRIGNITPADAGTYYCIKFRKGSPDDVEFKSGAGTELSVRAKPSGGGAS[not shown - human IgG1 Fc]
binds	–	PR006345-ADC (Fc fusion, mc-vc-PAB-MMAE coupled to Cys-220 (Eu numbering; 92.45% of the site coupled), Coupling product of PR006345 with mc-vc-PAB-MMAE, without HIC purification; DAR=2 component 89% by LC-MS; also called coupling product PR006345-ADC) EEELQIIQPDKSVLVAAGETATLRCTITSLFPVGPIQWFRGAGPGRVLIYNQRQGPFPRVTTVSDTTKRNNMDFSIRIGNITPADAGTYYCIKFRKGSPDDVEFKSGAGTELSVRAKPSGGGAS[not shown - human IgG1 Fc]
–	binds	scFv-Fc PR002129 (Fc fusion, also called 1015M2-H4) QVQLVQSGGGVVQPGRSLRLSCAASGFTFSSYGMHWVRQAPGKGLEWVAVIWYDGSNKDYADSVKGRFTISRDTSKNTLYLQMNSLRAEDTAVYYCAREQARSFDLWGRGTLVTVSSGGGGSGGGGSGGGGSDIQLTQSPYSLSASVGDRVTITCRASQTINNWLAWYQQKPGKAPKLLIYKASSLESGVPSRFSGSGSGTEFTLTISSLQPDDFATYYCQQYKLYSPMYTFGQGTKVEIKGGGAS[not shown - human IgG1 Fc]
–	binds	PR002129-ADC (Fc fusion, mc-vc-PAB-MMAE coupled to Cys-220 (Eu numbering; 88% of the site coupled), Coupling product of scFv-Fc PR002129 with mc-vc-PAB-MMAE, main component DAR=2; also called coupling product PR002129-ADC) QVQLVQSGGGVVQPGRSLRLSCAASGFTFSSYGMHWVRQAPGKGLEWVAVIWYDGSNKDYADSVKGRFTISRDTSKNTLYLQMNSLRAEDTAVYYCAREQARSFDLWGRGTLVTVSSGGGGSGGGGSGGGGSDIQLTQSPYSLSASVGDRVTITCRASQTINNWLAWYQQKPGKAPKLLIYKASSLESGVPSRFSGSGSGTEFTLTISSLQPDDFATYYCQQYKLYSPMYTFGQGTKVEIKGGGAS[not shown - human IgG1 Fc]
